Experimental data taken from US20240101686A1 (SIMCERE ZAIMING PHARMACEUTICAL, published 2024).

B1: S008-NB148-48 (Fc fusion)
chain: QLQLVESGGGLVQAGGSLKLSCVASGFTFSNYAMAWYRQAPGKQRELIASCSASCIWTNYGASVKGRFTMSLDNAKKTVYLQMDSLKPEDTAVYYCRNLDANYWGQGTQVTVSS[human IgG1 Fc with changes not shown]
notes: VHH-Fc (VHH, human IgG1 hinge, human IgG1 Fc)
B2: S008-NB148-13 (Fc fusion)
chain: EVQVVESGGGLVQPGGSLRLSCAASDDISSIYTMAWYRQAPGKQRELVALVTPGGGTNYADSVKGRFTISRDNAKNTVYLQMNSLKPEDTAVYYCNARHRVTGFAYWGQGTQVTVSS[human IgG1 Fc with changes not shown]
notes: as for B1
B3: S008-NB149-12 (Fc fusion)
chain: QVQLVESGGGLVQPGGSLRLSCVVSESISVINAMTWYRQAPGKQRELVALISRGGSTNYADSVKGRFTISRDNAKNSVYLQMNSLKPEDTALYYCNVVPPLGSWGQGTQVTVSS[human IgG1 Fc with changes not shown]
notes: as for B1
B4: S008-NB148-8 (Fc fusion)
chain: EVQLVESGGGLVQAGGSLRLSCVVSGSTFSSYAMGWYRQAPGKQRELVAAISSGVSANVADSLKGRFAISRDNAKNAVYLQMNSLKPEDTAVYYCNTLPRSMPYWGKGTLVTVSS[human IgG1 Fc with changes not shown]
notes: as for B1
B5: S008-NB148-30 (Fc fusion)
chain: EVQLVESGGGLVRAGGSLRLSCAASGTISSYDVVGWYRQAPGKQRELVALIGTDRWLNLGDFAKGRFTMSTDDAANTVDLEMNSLKPEDTAVYYCYTFQHTVGPRWGQGTQVTVSS[human IgG1 Fc with changes not shown]
notes: as for B1
B6: S008-NB149-22 (Fc fusion)
chain: QVQLVESGGGLVQAGGSLRLSCVASGRFPSIYRMAWFRQAPGKERDFVAAINWGGTATYYEDSVKGRFTISRDNTKNTVWLQMNSLKPEDTAVYYCAAGTGTTYTPQRGDAYGYWGQGTQVTVSS[human IgG1 Fc with changes not shown]
notes: as for B1
B7: S008-NB148-9 (Fc fusion)
chain: EVQLVESGGGLVQAGGSLRLSCAASGSTLSSYAMGWYRQAPGKQRELVAAISSGGGSTNYRDSVKGRFTISRDNAKNTVYLQMNSLKPEDTAVYYCKSTDYGSLFDSWGQGTQVTVSS[human IgG1 Fc with changes not shown]
notes: as for B1
B8: S008-NB148-5 (Fc fusion)
chain: QLQLVESGGGLVQAGGSLRLSCAVSISTFTTNGWDWYRQAPGKQRELVALISNDGTTTYTDSVKGRFTISRDGAKNTVYLQMNNLKPEDTAVYYCNTIPPAGSWGQGTQVTVSS[human IgG1 Fc with changes not shown]
notes: as for B1
B9: S008-NB148-25 (Fc fusion)
chain: EVQLVESGGGLVQPGGSLRLSCAVSQSISSINAMDWYRQAPGKQRELVAIIFNNGRTNYADSVKGRFTISRDNARNTVYLQMNSLKPEDTAVYYCNIVPPLRNWGQGTQVTVSS[human IgG1 Fc with changes not shown]
notes: as for B1
B10: S008-NB149-15 (Fc fusion)
chain: QLQLVESGGGLVRPGGSLRLSCAASGSIFSRSGATWYRQAPGKQRELVALLTRDGHTDYPVVSVKGRFTISKDNAKNTVYLQMNSLQPEDTAVYYCNAIPPLGSWGRGTQVTVSS[human IgG1 Fc with changes not shown]
notes: as for B1
B11: S008-NB148-69 (Fc fusion)
chain: EVQVVESGGGLVQAGGSLRLSCAASTITISSAGVSWYRQAPGKQRELVAIITRGGSTNYADSVKGRFTISRDNAKNTHYLQMYNLKPEDTGIYYCNVVPPTYWGQGTQVTVSS[human IgG1 Fc with changes not shown]
notes: as for B1
B12: S008-NB149-9 (Fc fusion)
chain: QVQLVESGGFVQAGGSLRLSCAASGRTFSKYAMGWFRQAPGKEREFVAAIRWIGGSTYYADSVKGRFTISRDNDKNTLYLQMNSLKPEDTAVYYCAAGYQAYPEPPWEYDYWGQGTQVTVSS[human IgG1 Fc with changes not shown]
notes: as for B1

Molecular target: T1, human EGFR-His-tagged fusion protein (human, UniProt P00533 part only)
T1 construct: extracellular domain; bought; also called human EGFR protein; human EGFR-His protein

| OD450 | Binder |
| --- | --- |
| 0.09 | B1 |
| 0.06 | B2 |
| 0.04 | B3 |
| 0.06 | B4 |
| 0.12 | B5 |
| 0.04 | B6 |
| 0.07 | B7 |
| 0.06 | B8 |
| 0.06 | B9 |
| 0.09 | B10 |
| 0.06 | B11 |
| 0.06 | B12 |

Molecular target: T2, human EGFR on cells (human, UniProt P00533)

| EC50 | Max MFI | Binder |
| --- | --- | --- |
| 1.17 nM | 8370 | B1 |
| 1.63 nM | 15900 | B2 |
| 87.7 nM | 41100 | B3 |
| 3.6 nM | 11200 | B4 |
| 4.33 nM | 9110 | B5 |
| – | 12200 | B6 |
| 2.37 nM | 15800 | B7 |
| 30.3 nM | 15200 | B8 |
| 3.32 nM | 15400 | B9 |
| 5.38 nM | 18800 | B10 |
| 8.89 nM | 13200 | B11 |
| 0.26 nM | 3960 | B12 |

Molecular target: T1, human EGFR-His-tagged fusion protein
Remark: another data set of the same source

| OD450 | Binder |
| --- | --- |
| 2.64 | B1 |
| 2.5 | B2 |
| 1.95 | B3 |
| 2.65 | B4 |
| 2.75 | B5 |
| 2.17 | B6 |
| 2.76 | B7 |
| 2.82 | B8 |
| 2.7 | B9 |
| 2.47 | B10 |
| 2.59 | B11 |
| 1.94 | B12 |

Molecular target: T1, human EGFR-His-tagged fusion protein
Remark: another data set of the same source

| OD450 | Binder |
| --- | --- |
| 2.96 | B1 |
| 2.65 | B2 |
| 2.22 | B3 |
| 2.83 | B4 |
| 2.91 | B5 |
| 2.27 | B6 |
| 2.94 | B7 |
| 2.94 | B8 |
| 2.91 | B9 |
| 2.71 | B10 |
| 2.86 | B11 |
| 1.84 | B12 |

Molecular target: T1, human EGFR-His-tagged fusion protein
Remark: another data set of the same source

| OD450 | Binder |
| --- | --- |
| 0.06 | B1 |
| 0.05 | B2 |
| 0.07 | B3 |
| 0.06 | B4 |
| 0.05 | B5 |
| 0.05 | B6 |
| 0.05 | B7 |
| 0.06 | B8 |
| 0.07 | B9 |
| 0.24 | B10 |
| 0.06 | B11 |
| 0.13 | B12 |

Molecular target: T1, human EGFR-His-tagged fusion protein
Remark: another data set of the same source

| OD450 | Binder |
| --- | --- |
| 0.79 | B1 |
| 0.77 | B2 |
| 0.57 | B3 |
| 0.7 | B4 |
| 0.6 | B5 |
| 0.42 | B6 |
| 0.95 | B7 |
| 0.76 | B8 |
| 0.78 | B9 |
| 1.05 | B10 |
| 0.72 | B11 |
| 0.43 | B12 |

Molecular target: T2, human EGFR on cells
Remark: another data set of the same source

| EC50 | Max MFI | Binder |
| --- | --- | --- |
| 3.61 nM | 28800 | B1 |
| 2.24 nM | 37000 | B2 |
| 69.5 nM | 21400 | B3 |
| 28.8 nM | 37700 | B4 |
| 19.3 nM | 14200 | B5 |
| – | 3190 | B6 |
| 8.77 nM | 28900 | B7 |
| 151 nM | 15400 | B8 |
| 10.9 nM | 38500 | B9 |
| 16.4 nM | 35200 | B10 |
| 116 nM | 23100 | B11 |
| 1.5 nM | 32900 | B12 |

Molecular target: T1, human EGFR-His-tagged fusion protein
Remark: another data set of the same source

| OD450 | Binder |
| --- | --- |
| 2.23 | B1 |
| 1.44 | B2 |
| 1.7 | B3 |
| 2.08 | B4 |
| 1.99 | B5 |
| 1.52 | B6 |
| 2.27 | B7 |
| 2.13 | B8 |
| 2.26 | B9 |
| 2.14 | B10 |
| 2.11 | B11 |
| 1.44 | B12 |

Molecular target: T1, human EGFR-His-tagged fusion protein
Remark: another data set of the same source

| OD450 | Binder |
| --- | --- |
| 0.17 | B1 |
| 0.18 | B2 |
| 0.11 | B3 |
| 0.14 | B4 |
| 0.18 | B5 |
| 0.09 | B6 |
| 0.21 | B7 |
| 0.15 | B8 |
| 0.16 | B9 |
| 0.23 | B10 |
| 0.14 | B11 |
| 0.09 | B12 |

Molecular target: T1, human EGFR-His-tagged fusion protein
Remark: another data set of the same source

| OD450 | Binder |
| --- | --- |
| 2.69 | B1 |
| 2.42 | B2 |
| 2.06 | B3 |
| 2.5 | B4 |
| 2.64 | B5 |
| 1.96 | B6 |
| 2.55 | B7 |
| 2.61 | B8 |
| 2.6 | B9 |
| 2.35 | B10 |
| 2.49 | B11 |
| 1.77 | B12 |
